Whole data set: some 33,000 sequences, median “E-score (-0.5 to 0.5)” near -0.012, cut for the highest 2% near 0.29. The list shows a part of the results.
Biological target: T1, Ybr033w (UniProt P38073)
T1 sequence: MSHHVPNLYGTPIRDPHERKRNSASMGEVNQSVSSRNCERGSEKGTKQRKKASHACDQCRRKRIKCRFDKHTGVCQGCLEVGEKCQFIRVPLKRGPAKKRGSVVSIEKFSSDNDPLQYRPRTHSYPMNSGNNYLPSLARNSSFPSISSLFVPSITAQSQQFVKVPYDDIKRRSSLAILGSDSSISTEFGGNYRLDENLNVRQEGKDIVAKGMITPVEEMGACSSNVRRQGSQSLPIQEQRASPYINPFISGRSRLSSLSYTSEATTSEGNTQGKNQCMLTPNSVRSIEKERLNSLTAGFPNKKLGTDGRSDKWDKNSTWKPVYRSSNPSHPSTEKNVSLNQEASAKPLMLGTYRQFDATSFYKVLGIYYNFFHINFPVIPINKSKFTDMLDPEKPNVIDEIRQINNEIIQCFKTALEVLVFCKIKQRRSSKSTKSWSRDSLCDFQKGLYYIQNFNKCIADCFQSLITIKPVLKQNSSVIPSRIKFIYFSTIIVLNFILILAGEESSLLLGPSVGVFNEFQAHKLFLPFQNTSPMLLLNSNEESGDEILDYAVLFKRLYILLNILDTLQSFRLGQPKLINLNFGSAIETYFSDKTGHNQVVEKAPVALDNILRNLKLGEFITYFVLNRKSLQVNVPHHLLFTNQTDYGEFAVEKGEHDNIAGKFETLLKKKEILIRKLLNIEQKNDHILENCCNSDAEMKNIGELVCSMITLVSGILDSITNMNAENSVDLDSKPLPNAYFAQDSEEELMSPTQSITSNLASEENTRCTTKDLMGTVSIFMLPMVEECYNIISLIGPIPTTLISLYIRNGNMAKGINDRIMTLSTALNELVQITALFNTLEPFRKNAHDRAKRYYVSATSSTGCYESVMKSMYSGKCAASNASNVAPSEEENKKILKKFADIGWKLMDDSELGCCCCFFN
Assay: PBM E-score (8-mer binding enrichment) (E-score (-0.5 to 0.5)); higher = stronger / more preferred TF binding; most listed sequences are background and not binding sites
Conditions: protein concentration: 200 nM; construct: GST-full length
How it was run: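 Yeast transcription factors, full-length or as DNA-binding domains, were expressed with a GST tag using PURExpress in vitro transcription/translation. At about 100-200 nM they were applied to universal all-10-mer Agilent arrays, double-stranded by primer extension on fresh or once-stripped slides. Fluorescent anti-GST detected bound protein, and masliner normalised the scans. E-scores for ungapped eight-base words, pooled with reverse complements, came from the Universal PBM Analysis Suite.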

Sequence	PBM E-score
AAAGTCGG	-0.122
ACGTGTGC	-0.152
CCTGTAAC	-0.00887
GCCATAGC	-0.116
AAATCATC	0.205
AAAAATGT	0.22
AGACTCTG	-0.108
CCCAACAC	-0.132
CACTATGA	0.0588
ACTATAAT	0.23
AGGAAATC	-0.0432
CCACAAAA	0.165
ACGTTGCG	-0.0283
ACCCTTCC	-0.0151
CAGATTCA	-0.0416
GTGGTAAA	0.0442
GATTCTGC	0.0635
ACTTCGGC	0.0421
ATCAAACG	0.0557
GCGATCGA	-0.038
GCTAATTA	0.175
ATCCCGAT	0.0252
ATTGAAAA	0.289
ATTACTGC	0.225
AGCTCCCA	-0.267

Sequence	PBM E-score
GTAGAGAA	0.0434
CCAACTAA	0.21
AAAAACTC	0.19
CCAGAATA	0.0783
AACATCTA	-0.0243
ACCGTGCA	-0.154
CCACTTCA	-0.0798
CACGGTCC	-0.282
CTTTAGCA	-0.044
CGGAAGAC	0.00735
AAGTTGGA	0.0901
ACATGTGG	0.202
GCCTTAAA	0.0714
ACGCCCAT	-0.0933
CATCAGAC	-0.0601
CACTATTA	0.026
CGGTTTAA	-0.124
CGTTAGGA	0.0877
GCAGAAAA	0.227
CCATGAGG	-0.216
CGATATTA	0.336
ACCCATGG	-0.203
CTTTCATC	-0.0337
TCATACGA	0.11
CGCGGCCC	-0.288

Sequence	PBM E-score
GAGCTGAC	0.0999
AACGTAAG	-0.012
CTTGCAGC	-0.0792
GATTCTGA	0.136
ATCTTTAC	0.203
CAATACTG	0.0464
CACCTACA	-0.157
GCAAGCTA	0.0445
ATTAGATC	0.0257
AACTGACT	0.0811
GCGTACAC	-0.12
ATCGGATG	-0.0464
ACTACAAA	0.232
TTAGCTAA	0.0309
ACCACAAG	-0.0473
CGGTCCGC	-0.267
ATTGCGTG	0.079
ACGATCCG	-0.0459
GGTCGAGA	-0.114
ATGTCGAG	-0.113
TAATCGTA	0.214
CCCAAAAA	-0.19
AGAGGATC	-0.0233
TCCTGAGA	-0.049
AAGTAATA	0.0769

Sequence	PBM E-score
GCACACAC	-0.0996
GTCCACAA	0.0077
CCGCCTAC	-0.114
ACCTAATG	-0.141
AGTTCAAT	0.0607
CCAAGAAC	-0.122
AGCGAAAA	0.144
ATGGCCAG	0.0317
TCAACGAA	0.0502
CAATCTTA	0.148
AACGCGGT	-0.0462
ACTTTCCC	-0.00052
CTTGTTTA	0.18
GTATGCCA	-0.188
ACCTTGCA	-0.0761
CCGTGATC	-0.192
ACCAGCGG	-0.0315
CCCTTTCC	-0.192
ACCAACAA	0.284
AAAGAGAA	0.0579
CCTCAAGA	0.0867
AGGTAACT	0.0991
AGCCGGCC	-0.0824
ACCTACTC	-0.0816
AAGCTTGA	0.00734

Sequence	PBM E-score
CACGGTCA	-0.101
AAGTCAGA	-0.0299
GAAATATC	0.231
AGTATGTC	0.106
GCCCAAAC	0.0101
CCCCCAGA	-0.409
AGAGAAGA	0.102
ACGACGAA	0.0882
ACTCTACT	0.0812
AAAGTCTT	-0.0391
TTGAAAAA	0.237
CGTAATTC	0.0565
AACTTATG	0.223
ATTGCGTC	-0.0218
CACCCAAC	-0.136
CTTAACCC	-0.0993
ACTTGCAG	-0.0578
CGCCAGTC	-0.126
ATAAGCTA	0.0566
ATATCGGA	0.18
CAGCCTGG	-0.125
CTCCTACC	-0.0519
TACCCGTA	0.0736
AGACTGTG	-0.155
CTAATGTC	0.135

Sequence	PBM E-score
CAAAAAGG	-0.0467
AGTTGTTC	0.337
ATATCCGC	0.119
GTACGGAA	0.216
CGTTATAA	0.05
TCAGGTAA	0.0046
AAATGGAC	0.0958
AGCAGTTC	0.144
AGGCCATC	-0.193
ATCAGCCA	-0.111
TACGGGGA	-0.183
TCTTATAA	0.0725
TCGGATAA	0.335
AAAAGGGT	0.0255
AGTCCCCA	-0.321
ATCGCCGA	-0.122
CGGTCAGA	-0.0886
ATTAAAGC	0.141
TCACTCCA	-0.02
CAGCGCTC	-0.192
CGCGTAAC	-0.0497
CTTCGCGA	-0.0738
CTCGGATC	0.0946
AACAGACC	0.0535
CAACTCTG	-0.0426

Sequence	PBM E-score
CGTTATCC	-0.118
CCTGACCG	-0.284
CATTCGCC	-0.211
AAAGATTT	0.0994
CCGGTGCC	-0.246
ATGCCATC	0.0751
AACCCGGA	0.0617
AGGCTGTG	-0.0875
ACCTAGCC	-0.178
GTTCAGTA	0.0555
ACGCGGTA	-0.142
GCATATAC	-0.0177
TACACCTA	0.153
CATAGGCG	-0.167
CCTTCCAA	-0.00474
GTATAGCA	0.16
GGGCAAAA	0.0829
ACGGGCAT	-0.108
GCTAGAGC	-0.189
GCAGGGAC	-0.129
GAACGCTA	-0.114
AAATCATT	0.191
CTACGGTC	-0.233
CACAGTAC	0.045
CTCCATTC	-0.0984

Sequence	PBM E-score
AGAATCCC	0.0981
CTCGGGGC	-0.316
CCCTTTTC	-0.115
ATTGCTCC	0.0834
CAGTCCGG	-0.187
CACAACAC	-0.027
ATAAGATA	0.237
CAGTGTGC	-0.271
ACACTCCG	-0.0654
CAGAGTGA	-0.0197
AGGATGGC	-0.12
CTCATTGA	-0.106
AAGACCAC	-0.281
AACTCGAT	0.171
GTAGCCAA	-0.0693
CGCTGGCC	-0.378
CCAGAGAG	-0.205
AGCAGCTG	-0.0676
CGAGAGTA	0.171
AGTATAAG	0.173
CGACAGTC	-0.282
GTAGGCGA	-0.0699
AAACCGTT	-0.0546
AGGCTATC	-0.0433
GTACTCAA	0.1

Sequence	PBM E-score
ACGTGGGA	-0.176
AATTCGAT	0.234
AGAGGTTA	0.018
AATCACCG	-0.0481
TGCCGAAA	-0.0214
CCGCTATA	-0.0321
AATAGGAA	0.29
CGATGCCC	-0.28
AATTGGAA	0.136
CGGTGCGA	-0.213
ATTGGAGA	0.141
CCAGACGG	-0.177
ACAACTCA	0.158
AACTACTG	0.126
CACGAGTA	0.0368
GGGGACAA	-0.102
TCACATGA	-0.094
GAATACGA	0.192
AGTTGCGC	0.00203
ATAGACAA	0.118
ATGGATAG	-0.0837
AACAGGGT	-0.147
CCCCTGCC	-0.247
GATGAGGA	-0.183
TATAGACA	0.186

Sequence	PBM E-score
GTATGAAA	0.0652
ATTCGAGC	0.015
AGGCGTTC	-0.362
GGATTGAA	0.161
GGGGGTAA	-0.407
GGGGGGGA	-0.479
AAGTAACG	0.0587
ACAGGGTA	-0.0372
AAGTTAGT	0.21
CCTGCGGA	-0.0513
CAACATCA	0.278
TAGGTACA	-0.084
CGCTGCCA	-0.246
AGCAGACG	-0.0872
ACGTTTAT	0.113
CCACGATC	0.106
GTCTTTGA	-0.0431
CGATAACG	-0.0436
CATGCATC	-0.00805
ACCAAAAT	0.111
CTCAAGTA	0.0799
ACCCCCCC	-0.41
ACCCCGGC	-0.202
CAGATACA	0.135
GATAACGC	-0.0882

Sequence	PBM E-score
AGGCCAGC	-0.296
TCTGACCA	0.029
CCTCGCAC	-0.00673
AGCGCTCG	-0.215
ACTCTGGG	-0.086
AGCCGGCG	-0.199
GTAGAGCA	-0.128
TCCGTAAA	0.0786
ACACGACA	0.191
ACAACGAT	0.122
CCCTCGGA	0.105
CAGGCCGA	-0.0826
CGACCCAG	-0.401
CTTCTCAC	-0.0123
TGATACCA	0.092
AGACAAGC	-0.0962
CTTCGGAC	0.127
CGTAGCAC	-0.0253
AAACGCTC	-0.15
AAATCGAC	0.142
TCGATGCA	-0.0719
GAGAGATC	-0.00339
AATTGGGT	0.282
CTGACGTC	-0.0676
ATCGCCCA	-0.267

Sequence	PBM E-score
ACATGGCT	-0.186
ATGGATTA	0.115
AGTTGGTG	-0.0643
CCTCATAA	0.0859
ACAACCAC	0.0628
CCACCGGA	0.172
GCGGCGAC	-0.257
ATCATTGC	0.0242
ACAAGGCT	-0.274
CTAACATC	0.0315
TACTCCGA	0.134
TACGTCGA	0.00164
CCACCGCG	0.0359
AATCGTCC	0.00041
CCTGTCCA	-0.232
CCAGTGAG	-0.171
AAACGGAC	-0.102
GAGCCTGC	-0.154
CTTAAGAA	0.0628
CCAGCCTC	-0.348
ATGAGCCC	-0.136
GCGTTGGA	-0.13
CTCATTCA	0.0328
CATTATAC	0.155
AAGGCGCC	-0.29

Sequence	PBM E-score
TCATGTCA	-0.0696
CCAAGTCC	-0.167
TAAAGCCA	0.094
CTGGGATC	-0.156
GCCCGGAA	0.115
CAGAATAG	-0.0154
ACGTCCTG	-0.294
AGTTTCGG	0.119
GAAACGCC	0.0139
TGCAGCAA	-0.0398
GAGGCATC	-0.188
AGACAGGA	0.246
CCGGGGGA	-0.341
ATGCAATG	0.0594
ATCGCTGC	-0.013
CAAGCTGA	-0.0113
GATGTTGA	0.138
CCCTGTGC	-0.152
CTTCCTTA	0.118
AAGGGGCA	-0.254
ACCCTACT	0.0025
GGGGTTTA	-0.28
CAGTTGCC	-0.0398
GCACAACC	-0.148
CTGATCTC	-0.0253

Sequence	PBM E-score
CAAATCTC	-0.0207
AAATGGGT	0.155
ATTATGGA	0.188
AGTAACAT	0.105
AGACGTAG	-0.0365
ATGGACGC	-0.107
AGGGCACA	-0.0581
GATCCTCA	0.137
ATGCCAGC	-0.246
CAGTCTCA	0.0785
GGGATCCC	-0.182
AGCATGAT	0.0401
CGCGAACG	-0.148
AGCTGACC	-0.0157
AAACGATC	0.181
GAATAGGC	0.106
CGGCCTCC	-0.199
ACCTACGC	0.0248
AAGGCCGA	-0.0472
